Test results from PubChem BioAssay AID1508623 (National Center for Advancing Translational Sciences (NCATS), 2021).
The campaign covered roughly 48,000 compounds. About 450 (0.94%) were called active. Inconclusive results (about 19%) are left out. The call rests on the fitted dose curve; in most records, active means well fitted inhibition curve with a large enough effect; inconclusive means small, poorly fitted or top-dose-only effect; inactive means no such curve, though single readings can be large or run the other way. This is one part of the list.

Experiment: Primary qHTS for Identification of Small Molecule Inhibitors of Huntingtin Promoter Activity; further: nearly all actives have a fitted effect of over 50% in size
Conditions: HEK293 HTT promoter firefly luciferase reporter (activity 0% = vehicle and -100% = no light), 24 h; series mostly up to 57.5 µM; activity change, negative = inhibition: at the top concentration
How it was run: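 Firefly luciferase signal from promoter-reporter HEK293 cells was scaled between vehicle (0%) and zero RLU (-100%). Compounds were tested at final concentrations of up to 57.5 uM over 24 h at 37 degrees C. PTC124 at 50 uM final served as control inhibitor.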

Activity change, negative = inhibition, inactive:
Cc1ccc(N2CCN(C(=O)Nc3cn(CC(C)C)c(=O)c4ccccc34)CC2)c(C)c1 -1.94%
CC(C)Oc1ccc(CNC(=O)c2cnc3sc(N4CCCCCC4)nn3c2=O)cc1 14.4%
C[C@]12CCC3c4ccc(O)cc4CCC3C1CCC2=O (stereo not given in full) -15.8%
CCOc1ccc(/C=C/c2nc(C#N)c(N3CCCCCC3)o2)cc1 -8.13%
Cc1ccc(CNC(=O)c2ccc(CSCc3c(F)cccc3Cl)o2)cc1 3.72%
CC#CCn1c(N2CCC[C@@H](N)C2)nc2c1c(=O)n(Cc1nc(C)c3ccccc3n1)c(=O)n2C -2.97%
COc1ccccc1NC(=O)Cn1c(=O)n(Cc2nc(C)no2)c(=O)c2cc3c(cc21)OCO3 -9.91%
COc1ccccc1NC(=O)N1CCOc2ccccc21 -4.42%
Cc1cc(C)n2nc(CNS(=O)(=O)c3ccc(F)cc3)nc2n1 13.1%
CCCN(CCC)CCNC(=O)Cn1cnc2sc(C)c(S(=O)(=O)N3CCN(c4ccccc4OC)CC3)c2c1=O -14.5%
COc1cccc(CNC(=O)c2ccc(CN3CC(=O)N4CCCCC4C3=O)cc2)c1 (stereo not given) -20.2%
COc1ccccc1/C=C(\C#N)C(=O)NCC1CCCO1 (stereo not given) 1.93%
CCOc1ccc(-n2c(SCC(=O)N3CCCc4ccccc43)nc3c([nH]c4ccccc43)c2=O)cc1 -6.21%
CN(c1ccc(Cl)cc1)S(=O)(=O)c1nnc(NC(=O)c2ccco2)s1 -12.8%
CCOC(=O)c1[nH]c(C)c(C(=O)NCCc2ccccc2)c1C 37.9%
CCOc1ccccc1NC(=O)CCS(=O)(=O)c1ccc(OC)cc1 1.08%
O=C(CCn1c(=O)c2ccccc2n(Cc2ccc(Cl)cc2)c1=O)NCc1ccc2c(c1)OCO2 0.269%
COc1ccc(CCNC(=O)C(=O)Nc2ccc(C)c(C)c2)cc1OC 16%
Cc1ccc2nc(NCCc3ccc(Cl)cc3)c3nncn3c2c1 -13.1%
COc1ccc(C)cc1NC(=O)Cc1ccc(NC(=O)N2CCCCc3ccccc32)cc1 -25%
Cc1ccc(C)c(Oc2c(C(F)(F)F)oc3c(CN4CCN(C)CC4)c(O)ccc3c2=O)c1 -13.2%
CC(C)c1ccc(Nc2c(-c3ccsc3)nc3ccc(Cl)cn23)cc1 -0.732%
CCn1cc(C(=O)NCc2ccccc2Cl)c(=O)c2cc(S(=O)(=O)N3CCOCC3)ccc21 -3.08%
C[C@@H]1C[C@H]2[C@@H]3CCC4=CC(=O)C=C[C@]4(C)[C@@]3(F)[C@@H](O)C[C@]2(C)[C@H]1C(=O)CO 2.61%
CCC(=O)C1=C(c2ccccc2)N(C(=O)CC)n2c(nnc2C2CCCCC2)S1 -6.95%
O=C(Nc1ccccc1[N+](=O)[O-])c1csnn1 4.06%
O=C(Nc1ccc2nc(SCC(=O)N3CCc4ccccc43)sc2c1)c1ccc(Cl)cc1 0.689%
Cc1ccc(NC(=O)CN2C(=O)C(c3ccc(F)cc3)=NC2(C)C)c(C)c1 -17.2%
Cc1cccc(C(=O)Nc2sc3c(c2C(=O)Nc2ccccc2)CCC3)c1 -8.4%
CCN(CC)C(=O)Nc1ccc(OCC(O)CNC(C)(C)C)c(C(C)=O)c1 (stereo not given) 6.92%
COc1ccc(CCNC(=O)c2cc(-c3ccc(C)c(C)c3)nc3ccccc23)cc1OC -15.4%
CCCn1c2ccc(C)cc2c2nnc(SCCN3CCCCC3)nc21 0%
Cc1ccc(S(=O)(=O)Nc2nc3n(n2)C(c2ccc(Cl)cc2)C=C(c2ccccc2)N3)cc1 (stereo not given) -15.2%
O=C(CN1C(=O)CC(c2ccco2)Sc2ccccc21)Nc1ccc(OC(F)(F)F)cc1 (stereo not given) -17.8%
Cc1ccc(NC(=O)[C@H](Cc2ccccc2)N2Cc3ccccc3C2=O)cc1F -7.14%
CCOc1ccc(C2CC(=O)c3c([nH]c(C(=O)OC4CCCCCC4)c3C)C2)cc1 (stereo not given) -4.45%
Cc1nn(C)c2c1c(C(F)(F)F)cc(=O)n2C(C)C(=O)NCc1ccccc1 (stereo not given) -23.4%
CCOCCc1nn2c(=O)cc(COC(=O)c3ccc4c(c3)OCO4)nc2s1 -5.68%
Cn1c(C(=O)Nc2cccc(Cl)c2)cc2c(=O)n(C)c3ccccc3c21 0.254%
COc1ccc(-c2nc(CS(=O)CC(=O)NCc3ccccc3Cl)c(C)o2)cc1OC (stereo not given) -2.1%
O=S(=O)(c1ccc(Br)cc1)N1CCn2cccc2C1c1ccc(Br)cc1 (stereo not given) 0%
Cc1ccc(CNc2nc3nc(C)c(Cl)c(C)n3n2)cc1 75.2%
Cc1ccc(-c2cn3c(n2)sc2cc(C(=O)NC4CCCCCC4)ccc23)c(C)c1 -2.43%
Cc1cccc(NC(c2nnc(-c3ccccc3)o2)c2ccc(F)cc2Cl)c1C (stereo not given) -19.3%
Cc1oc2c(c(C)cc3oc(=O)c(CC(=O)NCCc4ccc(Cl)cc4)c(C)c32)c1C 26.7%
CC(C)c1nn2c(=O)cc(COC(=O)COc3ccccc3F)nc2s1 -0.267%
CCc1ccccc1NC(=O)CSc1nc2ccccc2nc1Cc1cccc(OC)c1 -5.38%
O=C(NCc1ccccc1)c1ccc2c(c1)sc1nc(-c3ccc(F)cc3)cn12 6.78%
COc1cccc(-c2cn3c(n2)sc2cc(C(=O)NCCc4ccccc4)ccc23)c1 8.21%
Cc1cc(-c2ccc(C)c(S(=O)(=O)N(C(C)C)C3CCCCC3)c2)on1 -10.3%
CCn1c(=O)c2c(nc(C=Cc3ccc(OC)c(OC)c3)n2C)n(CC)c1=O -2.9%
CC1(C)O[C@H]2[C@@H](O1)[C@@H](C(=O)Nc1cc(F)ccc1F)O[C@@H]1OC(C)(C)O[C@@H]12 4.62%
COc1cc2c(cc1OC)C(C(C(=O)N(CCc1ccc(OC)c(OC)c1OC)CCc1ccc(OC)c(OC)c1OC)c1ccccc1)=NCC2 (stereo not given) -15.2%
Cc1cccc(-c2cc(C(=O)O)c3c(-c4ccc(F)cc4)[nH]nc3n2)c1 -8.65%
Cc1ccc2nc(N(Cc3cccnc3)C(=O)CCc3ccccc3)sc2c1 -11.3%
CNC(=O)c1ccc(N2C(=S)N(c3ccc(C#N)c(C(F)(F)F)c3)C(=O)C2(C)C)cc1F -6.09%
COc1ccc(-c2nc3n(n2)C(c2cccc(C)c2)C(C(N)=O)=C(C)N3)cc1OC (stereo not given) -0.254%
O=C(CCBr)N1CCN(C(=O)CCBr)CC1 7.33%
CCOC(=O)C1=C(CN2CCCCC2)NC(=O)NC1c1ccc(OC)cc1 (stereo not given) -18.2%
Cc1ccc(-c2cn3c(n2)sc2cc(C(=O)NC4CCCCC4)ccc23)cc1 -17.4%
COc1cc(OC)c(NC(=O)Nc2cc(C)on2)cc1Cl 9.9%
CCOc1ccccc1NC(=O)c1cn(C2CCCCC2)c(=O)c2c1c1ccccc1n2C -14.5%
COc1ccc(CCNC(=O)CCn2c(=O)c3cccn3c3ccc(F)cc32)cc1OC 0.47%
NS(=O)(=O)c1ccc(CCNC(=O)CCn2c(=O)c3cccn3c3cccnc32)cc1 -3.52%
Cc1cc(F)ccc1NC(=O)CN1C(=O)CCc2cc(S(=O)(=O)N3CCOCC3)ccc21 -12.4%
CCOc1cc2ncc(C#N)c(Nc3ccc(OCc4ccccn4)c(Cl)c3)c2cc1NC(=O)C=CCN(C)C -27%
COc1cc2nc(N3CCN(C(=O)C4COc5ccccc5O4)CC3)nc(N)c2cc1OC (stereo not given)
Cc1cc(Br)ccc1NC(=O)C(NS(=O)(=O)c1cccs1)c1ccccc1 (stereo not given) -26.4%
COc1ccc(Cl)cc1NC(=O)c1cc2nc(-c3ccc(C)cc3)cc(C(F)(F)F)n2n1 -16.5% [at 11.5 µM]
CCOC(=O)C(C)Nc1ncnc2onc(C)c12 (stereo not given) -7.45%
COc1cc(NC(=O)CCCN2C(=O)CCn3nc(-c4cn(C)c5ccccc45)cc32)cc(OC)c1 -22.2%
CSc1nc(C)cc(Nc2cccc(C(=O)O)c2)n1 47.6%
O=c1c(O)c(-c2ccc(O)cc2)oc2cc(O)cc(O)c12 49.2%
Fc1ccc(Nc2nc(-c3ccc(F)cc3)c3c(n2)-c2ccccc2OC3)cc1 -8.46%
Cc1sc2c(c1C)c(=O)n(-c1ccc(Cl)cc1)c(=O)n2CC(=O)c1ccccc1 -4.89%
COc1cccc(C(=O)Nc2ccc3nc(SCC(=O)N4CCc5ccccc54)sc3c2)c1 -9.96%
Cc1c(NC(=O)c2ccc(-c3ccc(F)cc3)o2)cccc1-c1nc2ncccc2o1 2.92%
COc1cccc(CNC(=O)c2ccc3c(c2)sc2nc(-c4ccccc4)cn23)c1OC -3.24%
O=c1[nH]c2ccc(S(=O)(=O)Nc3cc(Cl)ccc3O)cc2o1 -12%
Cc1ccc(-c2nc3scc(CCNS(=O)(=O)c4c(C)noc4C)n3n2)cc1 -28.4%
CCC(=O)N1CCc2cc(Br)cc(S(=O)(=O)N3CCN(c4cccc(Cl)c4)CC3)c21 -3.54%
O=C(OCC1CCCO1)c1ccc2c(c1)N(Cc1cccc(F)c1)C(=O)c1ccccc1S2(=O)=O (stereo not given) 4.73%
Cc1nc2c(-c3ccc(F)cc3)c(C)nn2c(C)c1CCC(=O)NCc1cccc(Cl)c1 -9.07%
CC1CCc2nc(NC(=O)Cc3ccc(Cl)cc3)sc2C1 (stereo not given) -8.16% [at 11.5 µM]
CCOc1cccc(C2c3[nH]c4ccccc4c3CCN2C(=O)Cc2cccc(OCC)c2OCC)c1 (stereo not given) -32.3%
Cc1cc2c(cc1S(=O)(=O)CCC(=O)N(C)Cc1ccccc1)OCC(=O)N2 -1.16%
CSc1cccc(NC(=O)N2CCN(S(=O)(=O)c3ccc4c(ccn4C)c3)CC2)c1 -34.8%
O=C(CSc1nc(-c2ccccc2)no1)N1CCN(c2ccc(F)cc2)CC1 2.15%
COc1ccc(C2=NS(=O)(=O)N(C)C(C(=O)NC(C)c3ccccc3)=C2)cc1OC (stereo not given) -14.3%
CCOc1ccc(NC(=O)CCc2c(C)nc3c(c(C)nn3-c3ccccc3)c2C)cc1 9.54%
CC1CN(c2cc3c(cc2F)c(=O)c(C(=O)O)cn3-c2ccc(F)cc2F)CCN1 (stereo not given) -3.83% [at 6.01 µM]
Cc1ccc(S(=O)(=O)n2nc(C)c(S(=O)(=O)N3CCCCC3)c2C)cc1 -1.11%
CCc1ccc(CN(Cc2ccco2)C(=O)c2ccc(C)cc2)cc1 -21.2%
CC(=O)Nc1ccccc1-c1nc2ccccc2n(C(C)C(=O)Nc2cccc(C)c2C)c1=O (stereo not given) -20.9%
O=C(Nc1ccccc1)N(Cc1cccs1)c1ccc(Cl)cc1 -12.8%
